Measured values published in the supplement of paper PMC11417369.
Some of the results follow.

The sequences below were run on PfAP2-HC AP2 domain (GST-tagged) (assay: gcPBM binding intensity (ln(normalized median fluorescence intensity)); higher = stronger DNA binding).
In short: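 An Agilent 4 × 180k array of primer-extended double-stranded 36-bp intergenic genomic probes, with negative controls, was incubated for 1 h with GST-tagged P. falciparum DNA-binding domains expressed in E. coli. Alexa488 anti-GST antibody detected bound protein, scanned at 488 nm. Binding intensity is the highest Masliner-normalised natural-log median intensity across replicate spots of either probe orientation.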

Sequence	gcPBM binding intensity (ln)
ACATTGCACCCGTGCACACATAGAAAAATAATTCTT [CACACA_site409]	9.69
ATAACAAAAATCCTTGTGCACTATTTTAATAGAGTC	9.72
CATTATGATTAAATATGTACATATTATTATATAAAT [XGTACX_site2477]	9.47
TACATCTTACTACTTATAATATAATATAGTATGAAT [TGCATGCA_negctrl_site8]	9.39
TACAATATATTTATAGTGCATATTACTTTTAACTTT	9.7
TCGTAATAATATAAATGTACTTTATTAATTAAAAGA [XGTACX_site3416]	9.51
AAAAAAAATTTTATCTGTACACATTTTTTTCTTTTT [XGTACX_site4229]	9.73
ATATAATTTATGTGCACACACTCCTATTTTTAGCTT [CACACA_site50]	10.2
AAAAAGTAAAAGAAAGCACACACACCGGTATATATG [CACACA_site9281]	10.5
AACAAAATAAGACACACACACAAATGTACCTATATA [CACACA_site7189]	10.4
TCTTTTTTAAATAAAAGTACAAAAAAAAATAAAAAA [XGTACX_site2670]	9.5
AAAAAAAATATGAAAACACACATATATAAATAAATA [CACACA_site113]	10
TAATATATATGTATGGCACACACGGATAAATATATA [CACACA_site930]	10.1
CATGCCTTTAAAAAGGTGCAAACATTTTCACAAACA	9.53
AACGGGTAATGCACAAAAAAAAAAAAATAAAATAAA [TGCATGCA_negctrl_site474]	9.65
AAATTATTTTGTTATCATTATATATAGATTGAATAT [XGTACX_negctrl_site165]	9.5
TTCTTTTAAATTAGCTGTACGGTTTTCTACATGCAT [XGTACX_site356]	9.99
CAAACAAATATATGTTGTACTTATTATATATACATA [XGTACX_site2998]	9.56
TTATCATATGTATGCATACACACAAAAAATTATATA [CACACA_site397]	9.78
ATGTAATTCTTTTACTTTTTTTTTTTTTTTTTTTTT [CACACA_negctrl_site979]	9.23
ATAAATGAGCCATATTAAATCCGTTACACGGGTGTG [CACACA_negctrl_site1368]	9.51
CAGACAATAAAGAAGTGTACACATATATCAATAAAA [XGTACX_site4515]	9.88
CTTTATCTTCTCACGAAGATTGAATAAGGTATTCTT [XGTACX_negctrl_site307]	9.47
AAAAAAAAATACCTACGTACATATATATATTATATA [XGTACX_site3983]	9.72
TTAATGCACTTTATTACACACACTAGTTCATTACCT [CACACA_site2294]	10.2
